Laboratory results published in publication PMC8286836, “Identifying SARS-CoV-2 antiviral compounds by screening for small molecule inhibitors of Nsp5 main protease” (Biochemical Journal, 2021).
Where a name gives a salt, the structure may show the parent alone. Where a SMILES comes first, the peptide text is derived from it. [ ]: non-standard residue; d: D form. The star is where a group is joined. Nle = CCCC[C@H](N)C(=O)O; Cbz = O=C(OCc1ccccc1)*; CH2F = FC*

Tested on: nsp5 protease
Details: for % Reduction at 0.8 µM / % Reduction at 4 µM: reduction in nsp5 activity (rate of reaction), primary HTS; for % Reduction at 0.8 µM: compound 0.8 µM; for % Reduction at 4 µM: compound 4 µM

Which results are given for `C=CCn1c(=O)c2c(nc(-c3ccc(S(=O)(=O)O)cc3)n2C)n(C)c1=O` [1-Allyl-3,7-dimethyl-8-p-sulfophenylxanthine]?
% Reduction at 0.8 µM: 0%; % Reduction at 4 µM: 37%

Which “% Reduction at 0.8 µM” value does the source give for `CC(C)=CCc1cc2c(cc1O)oc(=O)c1c3ccc(O)cc3oc21` [3,9-dihydroxy-2-(3-methyl-2-butenyl)-6H-[1]benzofuro[3,2-c]chromen-6-one] here?
The value was 0%.

And the “% Reduction at 4 µM” value?
The value was 79%.

What does the source list for `COc1ccc(-c2ccc3cc(C(=O)O)ccc3c2)cc1C12CC3CC(CC(C3)C1)C2` [Adapalene]?
% Reduction at 0.8 µM: 0%; % Reduction at 4 µM: 87%

What does the source list for `COc1cc2nc(N(C)CCCNC(=O)C3CCCO3)nc(N)c2cc1OC` (stereo not shown) [Alfuzosin]?
% Reduction at 0.8 µM: 0%; % Reduction at 4 µM: 44%

How did the “% Reduction at 0.8 µM” value turn out when `O=C1O/C(=C/Br)CCC1c1cccc2ccccc12` (stereo not shown) [Bromoenol lactone] was run?
Its value is 0%.

And the “% Reduction at 4 µM” value?
The value was 49%.

How did the “% Reduction at 0.8 µM” value turn out when `Cc1ccccc1N=Nc1ccc(NC(=O)c2ccnn2C)c(C)c1` [CH-223191] was run?
The value was 0%.

What about the “% Reduction at 4 µM” value of the same molecule?
The value was 79%.

With `O=C(O)CCCCC(CCSCc1ccccc1)SCc1ccccc1` (stereo not shown) [CPI-613] as the molecule, how does the “% Reduction at 0.8 µM” value read?
Its value is 0%.

And the “% Reduction at 4 µM” value?
The value was 54%.

Which results are given for `CCCC[C@@H](C=O)NC(=O)[C@H](CC(C)C)NC(=O)[C@H](CC(C)C)NC(C)=O` [Calpain Inhibitor I, (2S)-2-(acetylamino)-N-[(1S)-1-({[(1S)-1-formylpentyl]amino}carbonyl)-3-methylbutyl]-4-methylpentanamide] (Ac-Leu-Leu-[Nle]-aldehyde)?
% Reduction at 0.8 µM: 0%; % Reduction at 4 µM: 58%

Which “% Reduction at 0.8 µM” value does the source give for `C=C1C[C@@]2(O)O[C@@]3(C[C@H]2C(C)C)[C@@H](C)CC[C@@H]13` [Curcumol] here?
The value was 0%.

What about the “% Reduction at 4 µM” value of the same molecule?
Its value is 31%.

How did the “% Reduction at 0.8 µM” value turn out when `COc1cc2nc(N3CCN(C(=O)C4COc5ccccc5O4)CC3)nc(N)c2cc1OC.CS(=O)(=O)O` (stereo not shown) [Doxazosin (mesylate)] was run?
Its value is 0%.

What about the “% Reduction at 4 µM” value of the same molecule?
Its value is 60%.

How did the “% Reduction at 0.8 µM” value turn out when `CC(C)(C#N)c1ccc(N2C(=O)OCc3cnc4ccc(-c5cnc6ccccc6c5)cc4c32)cc1` [ETP-46464] was run?
Its value is 0%.

And the “% Reduction at 4 µM” value?
Its value is 64%.

Which “outcome in the primary screen” value (HTS buffer with reducing agent) does the source give for `O=c1c2ccccc2[se]n1-c1ccccc1` [Ebselen] here?
Its value is “not identified as an hit”.

For `Br.CCCc1cc(-c2nc(-c3ccc(C)cc3)cs2)ccn1` [Fatostatin HBr], which “% Reduction at 0.8 µM” value is on record?
The value was 0%.

What about the “% Reduction at 4 µM” value of the same molecule?
The value was 48%.

Which results are given for `Cn1c2ccccc2c2c3c(c4c5ccccc5n(CCC#N)c4c21)CNC3=O` [Go6976]?
% Reduction at 0.8 µM: 0%; % Reduction at 4 µM: 67%

`CN1C2CCCC1CC(NC(=O)c1nn(C)c3ccccc13)C2` (stereo not shown) [Granisetron HCl] was tested. Which “% Reduction at 0.8 µM” value did it give?
The value was 0%.

And the “% Reduction at 4 µM” value?
The value was 36%.

How did the “% Reduction at 0.8 µM” value turn out when `CC(C)[C@H](N=C(NS(=O)(=O)c1ccc(Cl)cc1)N1C[C@H](c2ccccc2)C(c2ccc(Cl)cc2)=N1)C(N)=O` [JD-5037] was run?
The value was 0%.

And the “% Reduction at 4 µM” value?
Its value is 74%.

What does the source list for `CN1CCN(c2c(F)cc3c(=O)c(C(=O)O)cn4c3c2OCN4C)CC1` [Marbofloxacin]?
% Reduction at 0.8 µM: 0%; % Reduction at 4 µM: 56%

How did the “% Reduction at 0.8 µM” value turn out when `Cn1cc(-c2ccc3ncc(Cc4ccc5ncccc5c4)n3n2)cn1` [NVP-BVU972] was run?
The value was 0%.

And the “% Reduction at 4 µM” value?
The value was 59%.

For `COc1ccc(COc2cc3oc(=O)c4cc(C(C)O)ccc4c3cc2OC)cc1` (stereo not shown) [Palomid 529], which “% Reduction at 0.8 µM” value is on record?
Its value is 0%.

And the “% Reduction at 4 µM” value?
Its value is 43%.

Which results are given for `COc1cc2nc(N3CCN(C(=O)c4ccco4)CC3)nc(N)c2cc1OC` [Prazosin hydrochloride]?
% Reduction at 0.8 µM: 0%; % Reduction at 4 µM: 80%

With `Cc1ccc(S(=O)(=O)Cc2nc(-c3ccc(C(=O)NCc4cccnc4)cc3)oc2C)cc1` [STF-118804] as the molecule, how does the “% Reduction at 0.8 µM” value read?
The value was 0%.

And the “% Reduction at 4 µM” value?
Its value is 55%.

For `CCOc1ccc(Cc2cc([C@@H]3O[C@H](SC)[C@@H](O)[C@H](O)[C@H]3O)ccc2Cl)cc1` [Sotagliflozin (LX4211), Sotagliflozin], which “% Reduction at 0.8 µM” value is on record?
Its value is 0%.

And the “% Reduction at 4 µM” value?
The value was 47%.

Which “% Reduction at 0.8 µM” value does the source give for `COc1cc2c(cc1OC)CN(CCc1ccc(NC(=O)c3cc(OC)c(OC)cc3NC(=O)c3cnc4ccccc4c3)cc1)CC2` [Tariquidar] here?
Its value is 0%.

What about the “% Reduction at 4 µM” value of the same molecule?
The value was 66%.

What does the source list for `COc1cc2ncc(-c3ccccc3)nc2cc1OC` [Tyrphostin AG 1296]?
% Reduction at 0.8 µM: 0%; % Reduction at 4 µM: 45%

Which results are given for `COC(=O)CCC(NC(=O)C(CC(=O)OC)NC(=O)OCc1ccccc1)C(=O)NC(C(=O)NC(CC(=O)OC)C(=O)CF)C(C)C` (stereo not shown) [Z-DEVD-FMK]?
% Reduction at 0.8 µM: 53%; % Reduction at 4 µM: 100%

For `CCC(C)C(NC(=O)OCc1ccccc1)C(=O)NC(CCC(=O)OC)C(=O)NC(C(=O)NC(CC(=O)OC)C(=O)CF)C(C)O` (stereo not shown) [Z-IETD-FMK] (Cbz-IE(OMe)TD(OMe)-CH2F; configuration not given here), which “% Reduction at 0.8 µM” value is on record?
Its value is 50%.

What about the “% Reduction at 4 µM” value of the same molecule?
Its value is 100%.

Which “% Reduction at 0.8 µM” value does the source give for `COC(=O)CC(NC(=O)C(C)NC(=O)C(NC(=O)OCc1ccccc1)C(C)C)C(=O)CF` (stereo not drawn) [Z-VAD-FMK, Z-VAD(OMe)-FMK] (Cbz-Val-Ala-Asp(OMe)-CH2F; configuration not given here) here?
Its value is 43%.

And the “% Reduction at 4 µM” value?
Its value is 100%.

How did the “% Reduction at 0.8 µM” value turn out when PDK1/Akt/Flt Dual Pathway Inhibitor was run?
Its value is 0%.

And the “% Reduction at 4 µM” value?
Its value is 64%.
